# The other results are listed elsewhere or left out.
# System: PfHDP1 homeodomain (GST-tagged)
# Test: gcPBM binding intensity (ln(normalized median fluorescence intensity)); higher = stronger DNA binding
# Procedure, shortened: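 For binding intensity, the highest Masliner-normalised natural-log median intensity across replicate spots of either probe orientation was taken. Protein bound to the array was stained with Alexa488 anti-GST antibody and scanned at 488 nm. The protein, GST-tagged P. falciparum DNA-binding domains from E. coli at about 25 μg on average, had been applied for 1 h to an Agilent 4 × 180k array of primer-extended double-stranded 36-bp intergenic genomic probes and negative controls.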
row,Sequence,gcPBM binding intensity (ln)
1,GGCATACACAGACACACACACACACCCACATATATA [CACACA_site591],7.38
2,AATAAATAAATAAGTACACACATATATATATATATA [CACACA_site284],9.32
3,ATTTTTTTATTTTGTGCACACACATAAAAATATATA [CACACA_site762],11.4
4,TCTATTTTTCTAATTTGTACATAGCTTTGAGTTAGT [XGTACX_site8977],6.79
5,AACTTATTAAGCCCTCCACATTTCTCTACTACAACT [CACACA_negctrl_site1552],6.52
6,AACTTCTTTTTTATAACACACAAAATATATATACAA [CACACA_site282],6.85
7,AGATAAAATATATACACACACATAAATACGTACAAA [CACACA_site1086],7.07
8,TACATTTTTATTTTTACACACATATTTATTTATATA [CACACA_site6609],7.06
9,TATGATGATGAATAACGTACAAAAAAATTAATCACC [XGTACX_site6794],6.87
10,ATTCATTTTAATATGGGTACATAAAAATAAAAAGAA [XGTACX_site2801],6.68
11,AATATTTAATTCAACACACATACATATTTATTAAAA [CACACA_site2342],6.5
12,GCATAAATCAGACACACACACATATATAAATATGTA [CACACA_site7187],6.58
13,TAATATGAAAAGTGTACACACGCACAGACAAAAAAA [CACACA_site5594],7.66
14,TGTTTATTTTTTTTATGTACTTATTTTTTATTGCAT [XGTACX_site719],7.02
15,ATAAATATATGGTTTCATTATATTAAATTCAATTTA [CACACA_negctrl_site213],5.83
16,GATTTTCATATTTTTTGTACTTACATTTTTCTATAC [XGTACX_site6002],6.59
17,ATAAAATCTTAATCAACAAACAAACAAAAAAAAAAT [CACACA_negctrl_site1161],6.66
18,TATGTGATATATTTATCACACATTATATATATATAT [CACACA_site5103],8.89
19,ATGGGGAATAATGAATGTACACAAATAAAAAGTTGG [XGTACX_site4015],7.28
20,ATCTAAACCTTTTGAGCACACATATATATATATATA [CACACA_site8526],9.33
21,AATCATTTATGGAAAGCATGCTAAATTAGAGTATAC [TGCATGCA_site172],6.99
22,TAATATCATTTAGACACACACTCTTACAATCTGTAA [CACACA_site2590],6.43

row,Sequence,gcPBM binding intensity (ln)
1,TAATTTTTTTAAAACACACAAATATGTAAATATGTA [CACACA_site7769],6.15
2,TAAAAATAAAAATAACGTACATACATACTTATATAT [XGTACX_site3745],6.01
3,AGTATAGTTATAAATTGTACATATTATTTATTTTAT [XGTACX_site949],6.35
4,TAAGTCGCCAAAAGGTGTACACATAATGCATTATCA [XGTACX_site8852],7.6
5,TTTTTTTTTTGTAATTGTACTTTTTTAATACTTCTA [XGTACX_site4195],6.3
6,TATATATATATATTCACACATAAATATATGCACCCA [CACACA_site4263],11
7,TATACATATATATACACACACATATATATATATATA [CACACA_site4],9.46
8,ATTTTTGTGACTAAGACATGCATAAGAGTAAAGAAA [TGCATGCA_site619],7.44
9,ACATATATTATATAACGTACATAACACTATTTCCTT [XGTACX_site6938],6.71
10,AATAAATATAAATACACACCCATATATATATATATA [CACACA_site5436],9.42
11,ACCAATAAATATTTGGTGCATACATATATATATATA,10.5
12,TTAAAAAAAAAAAAAAGTACACACTTATAAAATATT [XGTACX_site1630],6.31
13,TCATACCTACATAAAAAAAGGGAAACAAAATGTCAT [XGTACX_negctrl_site34],6.12
14,TATTATAATGACTATAGTACATAATATTATTTATAT [XGTACX_site1977],6.54
15,ATAGAACTGAATAAATCTATAAATAAATATATATAT [GTGCAC_negctrl_site604],7.87
16,CTCCACAAACAAATCGCACACCCAACCCAACATATA [CACACA_site2650],6.7
17,ACCTACACAAGCATTAAACACACAAAAGGGATACTT [CACACA_site8273],6.89
18,ACCTAATTTTTATATTGTACATAATATAATATATAT [XGTACX_site1715],6.61
19,ACAAGAACAGAACGTACACACACATATATATATATA [CACACA_site9143],9.18
20,AAATATTACATACACGCACACATTAATATATTTAAA [CACACA_site2603],7.25
21,ACATATACATTTATATGTACTCATTTATCTTATGTA [XGTACX_site6594],6.46
22,TTTTTTAAAACTTCAAAAAGAGCACTTGAATTTTTT [GTGCAC_negctrl_site455],5.95

row,Sequence,gcPBM binding intensity (ln)
1,AACTAAATTTATAATTGTACATTAAAATATGTATTA [XGTACX_site479],6.25
2,TACATAAACATTTATACACACATTAGATATACATAT [CACACA_site6329],6.77
3,CTAAATAAAGTTAACACACACATAATATTTATATGT [CACACA_site6368],6.33
4,TCAAAGAGTAGAAAGGTGCTTATGAACGAGATAATT,6.19
5,TATTATAATTTTATATGTACACATATATAAATATAT [XGTACX_site4054],6.29
6,TTTTACATATATATATGTACGAAAATGAAAAGGTCA [XGTACX_site5576],7.22
7,AAAGTTACATTCGACACACACATAACAACTAAATAA [CACACA_site3419],6.66
8,TTTATTTATTAATACACACACACACCCCCACAAAAT [CACACA_site240],8.23
9,TATCATTTGGTCTTTTACTTTTTCTGTTTTTTTTTT [CACACA_negctrl_site976],6.68
10,TTTTTTACTATATCAATTACAAAACAAAAAAAAAAA [GTGCAC_negctrl_site683],6.26
11,TGATAAAATATTAAATTATTTCTTTATTTAAAGATT [CACACA_negctrl_site370],5.71
12,AAATATGTTTCAAAAAGTACATTTCTATCTTTTTTT [XGTACX_site7178],6.53
13,AATATGCCTCCCCAAAAAAAATATATATATATTTAT [GTGCAC_negctrl_site716],7.73
14,TGGTTATAATTGTACGCATGTAATTACATATTCTCT [TGCATGCA_site599],6.7
15,TATATTTAAATATATACACACATTATCATTTTCATA [CACACA_site1708],6.66
16,GAAAAGATTTAAAAATGTACAAAAGAAAAAAAAAAA [XGTACX_site6916],6.18
17,TTAAAATTAAAATACGTACACACCTTATCTTTTTGG [CACACA_site7982],6.26
18,TCTTACAAGGAACTAATAAAATTGTAGTTTGTATTT [CACACA_negctrl_site386],6.11
19,AAGTATTTCCTAAAATGTACATATAAATAAGTATAT [XGTACX_site1282],6.27
20,AAATCTTAATAAAGTTGTACATAATTATGTTTAATA [XGTACX_site3348],6.31
21,TTATTATTTATTTTTTATTATTATTATTTTTTTTTA [XGTACX_negctrl_site76],6.3
22,CATATATTTTGAAACACACACATATAAAATATACAT [CACACA_site6664],6.81

row,Sequence,gcPBM binding intensity (ln)
1,AAAATACATGGACACACACACACACCGATATATATA [CACACA_site5885],6.97
2,ATATAATATATATACAAACACACAATTGTGTCCACA [CACACA_site1748],6.97
3,TACATAACTTTAATCACACACAAACAAACACATACA [CACACA_site6235],7.06
4,AAATATACATATATATGTACATATAAATATATTTTA [XGTACX_site5266],6.27
5,AACCTCATGGACATATGTACACATATACAATTATTT [XGTACX_site6533],7.04
6,TTATCTTACATATATCATTAAATCATATAACAAAAA [XGTACX_negctrl_site517],6.35
7,TTATGTATTTTAAATGGTTTTATTATAAAGTTTAAT [CACACA_negctrl_site1470],6.17
8,CCTTTATAATTGGAAACACACATATAAAGTATATAT [CACACA_site3900],6.4
9,GTTATATTTAAAATAGTGCAATAAAAATAATAATAT,9.3
10,CACAAATATACAAATACACACAAATATACGCATATA [CACACA_site2384],6.82
11,GAATTTTAAATAAACATATAAACAGAAAAAAAAAAA [TGCATGCA_negctrl_site149],6.49
12,TAGTTTTCTTAAAGATGTACTTATTAAAAATAAACT [XGTACX_site1001],5.72
13,TATAGATAAATTATTTGTACTTATAAAATTATTATA [XGTACX_site2870],5.89
14,AATGATTGATTTTATTGTACGTACTCGGAATATGGT [XGTACX_site4976],6.81
15,GTTCGAAGTATAATTTGTACATATAAAATGGTTCCC [XGTACX_site382],6.44
16,ATATGTATTTATATATGTTTGAATTTTTTTTTTTTT [CACACA_negctrl_site5],5.97
17,GAATAAATAAATAAATGTACATATATATTTATTTAT [XGTACX_site243],6.23
18,ATTTGATCAACAAAACGTACACATATTTTCATGTGT [XGTACX_site447],6.47
19,ATATAGTAAAATTATACACACATGAATTTTCCCATG [CACACA_site1770],6.65
20,GGGAATTATGAAAAAAGTACAGAACAAAAGTAAAAG [XGTACX_site2861],7.1
21,CATATATATATATATACACACACACCGTCCGTGTTA [CACACA_site8975],7.23
22,ATTACATGATATATCACACACACATATAAATATATA [CACACA_site2830],7.13

# From the supplement of paper PMC11417369
